According to paper PMC9597577, “Mutant Ras and inflammation-driven skin tumorigenesis is suppressed via a JNK-iASPP-AP1 axis” (Cell Reports, 2022):
Changes are numbered by the printed parent chain. Names and notes keep the numbering of the source. No constants are given. Whether binding was seen depends on the method and setting. Binding seen in cells or lysates may run through a third protein. Some entries that bind do so weakly or less than the wild type. For some of these results: Where a sequence is shown, tags or fusion partners need not be part of it. Blank lines part the entries; values can stand above or below the molecule they belong to.

Chains of the proteins cited; added tags and fusions are not shown.
UniProt P01100: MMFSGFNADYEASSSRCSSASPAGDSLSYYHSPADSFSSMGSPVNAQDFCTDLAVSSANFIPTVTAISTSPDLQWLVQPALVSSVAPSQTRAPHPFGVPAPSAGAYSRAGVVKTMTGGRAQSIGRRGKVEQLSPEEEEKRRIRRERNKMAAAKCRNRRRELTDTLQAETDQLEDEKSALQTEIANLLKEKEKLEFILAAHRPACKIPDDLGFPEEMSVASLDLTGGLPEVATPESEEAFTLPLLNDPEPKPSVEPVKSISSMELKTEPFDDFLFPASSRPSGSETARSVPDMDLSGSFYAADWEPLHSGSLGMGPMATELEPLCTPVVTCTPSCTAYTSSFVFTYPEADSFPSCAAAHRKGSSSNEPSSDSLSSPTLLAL
UniProt P05412: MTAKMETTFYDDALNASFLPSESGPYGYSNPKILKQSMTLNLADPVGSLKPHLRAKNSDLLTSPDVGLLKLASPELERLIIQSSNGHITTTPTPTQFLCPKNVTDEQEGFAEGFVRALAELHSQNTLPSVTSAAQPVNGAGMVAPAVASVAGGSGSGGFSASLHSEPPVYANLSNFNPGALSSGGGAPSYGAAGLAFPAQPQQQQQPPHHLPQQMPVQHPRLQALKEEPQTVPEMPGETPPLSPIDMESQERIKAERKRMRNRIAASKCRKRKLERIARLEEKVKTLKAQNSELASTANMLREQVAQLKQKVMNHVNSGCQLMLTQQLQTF

How the values were obtained:
[1] = molecular target: T1, Halo-tagged iASPP CTD (625–828) (UniProt Q8WUF5); test: pull-down; 100 μg purified Halo fusion protein immobilised on magnetic Halo beads; 20 μL in vitro translated Myc-tagged protein, 3 h at 4°C; 50 mM HEPES pH 7.5, 200 mM NaCl, 0.5 mM TCEP, 0.1% Surfactant P-20; anti-Myc blot; only the target purified
T1 sequence: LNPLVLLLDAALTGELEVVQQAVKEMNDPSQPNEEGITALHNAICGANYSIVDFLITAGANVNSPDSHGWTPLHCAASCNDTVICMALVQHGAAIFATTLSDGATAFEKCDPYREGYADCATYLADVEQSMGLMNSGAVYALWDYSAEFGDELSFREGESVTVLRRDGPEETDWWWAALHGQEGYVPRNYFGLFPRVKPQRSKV

[2] = molecular target: T1, Halo-tagged iASPP CTD (625–828); test: pull-down; displacement pull-down: Halo-iASPP CTD on magnetic Halo beads, in vitro translated Myc-tagged protein, with or without 25 μM JunD or PP1 peptide; anti-Myc blot; only the target purified
[3] = molecular target: T2, Halo-tagged ASPP2 CTD (925–1128) (UniProt Q13625); test: pull-down; 100 μg purified Halo fusion protein immobilised on magnetic Halo beads; 20 μL in vitro translated Myc-tagged protein, 3 h at 4°C; 50 mM HEPES pH 7.5, 200 mM NaCl, 0.5 mM TCEP, 0.1% Surfactant P-20; anti-Myc blot; only the target purified
T2 sequence: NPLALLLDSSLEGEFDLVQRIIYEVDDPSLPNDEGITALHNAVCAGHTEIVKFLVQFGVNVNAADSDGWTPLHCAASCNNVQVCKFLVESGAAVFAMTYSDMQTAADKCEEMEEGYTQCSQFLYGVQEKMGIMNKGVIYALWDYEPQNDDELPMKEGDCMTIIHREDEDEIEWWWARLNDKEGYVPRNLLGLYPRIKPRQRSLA

[4] = molecular target: T3, Halo-tagged ASPP1 CTD (887–1090) (UniProt Q96KQ4); test: as above
T3 sequence: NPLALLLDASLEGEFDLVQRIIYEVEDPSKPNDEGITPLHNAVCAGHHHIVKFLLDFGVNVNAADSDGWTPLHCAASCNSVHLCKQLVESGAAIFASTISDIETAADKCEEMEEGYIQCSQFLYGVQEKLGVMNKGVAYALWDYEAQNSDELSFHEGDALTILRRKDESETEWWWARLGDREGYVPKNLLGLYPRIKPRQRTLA

[5] = molecular target: T4, iASPP (endogenous, immunoprecipitated with LX49.3 or LX128.5) (human (endogenous in HaCaT)) (UniProt Q8WUF5); test: co-IP; IP of endogenous iASPP with anti-iASPP LX128.5 from lysates of control (CTRL) cells, blot for AP1 members; each sign is one experiment (biological replicate)
T4 sequence: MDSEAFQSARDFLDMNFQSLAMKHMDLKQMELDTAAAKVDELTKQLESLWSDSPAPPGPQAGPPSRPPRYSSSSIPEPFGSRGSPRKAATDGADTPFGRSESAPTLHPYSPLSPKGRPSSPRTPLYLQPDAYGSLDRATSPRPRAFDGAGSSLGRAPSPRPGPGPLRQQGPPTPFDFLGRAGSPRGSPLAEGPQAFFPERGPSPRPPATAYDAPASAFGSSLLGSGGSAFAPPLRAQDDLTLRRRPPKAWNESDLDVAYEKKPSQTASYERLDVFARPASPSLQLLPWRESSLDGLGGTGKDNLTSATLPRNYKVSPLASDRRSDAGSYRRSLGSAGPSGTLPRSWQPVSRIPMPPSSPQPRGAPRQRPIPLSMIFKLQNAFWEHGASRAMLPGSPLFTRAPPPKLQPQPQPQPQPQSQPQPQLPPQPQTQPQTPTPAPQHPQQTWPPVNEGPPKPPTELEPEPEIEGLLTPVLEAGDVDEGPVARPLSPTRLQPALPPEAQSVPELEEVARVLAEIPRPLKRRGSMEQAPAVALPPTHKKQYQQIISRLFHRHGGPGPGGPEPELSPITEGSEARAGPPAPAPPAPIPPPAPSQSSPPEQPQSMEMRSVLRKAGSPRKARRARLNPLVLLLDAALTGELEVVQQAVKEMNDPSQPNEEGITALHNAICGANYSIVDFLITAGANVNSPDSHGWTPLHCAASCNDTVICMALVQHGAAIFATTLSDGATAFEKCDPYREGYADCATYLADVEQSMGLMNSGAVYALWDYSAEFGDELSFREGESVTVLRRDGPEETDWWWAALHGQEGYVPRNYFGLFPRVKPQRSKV

[6] = molecular target: T4, iASPP (endogenous, immunoprecipitated with LX49.3 or LX128.5) (human (endogenous in HaCaT)); test: co-IP; IP of endogenous iASPP with anti-iASPP LX49.3 from lysates of control (CTRL) cells, blot for AP1 members; each sign is one experiment (biological replicate)

B1: JunB (endogenous) (protein, UniProt P17275 1-347)
chain: MCTKMEQPFYHDDSYTATGYGRAPGGLSLHDYKLLKPSLAVNLADPYRSLKAPGARGPGPEGGGGGSYFSGQGSDTGASLKLASSELERLIVPNSNGVITTTPTPPGQYFYPRGGGSGGGAGGAGGGVTEEQEGFADGFVKALDDLHKMNHVTPPNVSLGATGGPPAGPGGVYAGPEPPPVYTNLSSYSPASASSGGAGAAVGTGSSYPTTTISYLPHAPPFAGGHPAQLGLGRGASTFKEEPQTVPEARSRDATPPVSPINMEDQERIKVERKRLRNRLAATKCRKRKLERIARLEDKVKTLKAENAGLSSTAGLLREQVAQLKQKVMTHVSNGCQLLLGVKGHAF
binding [5]: binds
binding [6]: binds

B2: Myc-tagged JunB (protein, UniProt P17275 1-347)
chain: B1 chain
binding [2]: binds
binding [3]: binds
binding [4]: binds
binding [1]: binds

B4: JunD (endogenous) (protein, UniProt P17535 1-347)
chain: METPFYGDEALSGLGGGASGSGGSFASPGRLFPGAPPTAAAGSMMKKDALTLSLSEQVAAALKPAAAPPPTPLRADGAPSAAPPDGLLASPDLGLLKLASPELERLIIQSNGLVTTTPTSSQFLYPKVAASEEQEFAEGFVKALEDLHKQNQLGAGAAAAAAAAAAGGPSGTATGSAPPGELAPAAAAPEAPVYANLSSYAGGAGGAGGAATVAFAAEPVPFPPPPPPGALGPPRLAALKDEPQTVPDVPSFGESPPLSPIDMDTQERIKAERKRLRNRIAASKCRKRKLERISRLEEKVKTLKSQNTELASTASLLREQVAQLKQKVLSHVNSGCQLLPQHQVPAY
binding [5]: binds
binding [6]: binds

B5: Myc-tagged JunD (protein, UniProt P17535 1-347)
chain: B4 chain
binding [2]: binds
binding [3]: binds
binding [4]: binds
binding [1]: binds

B8: Myc-tagged JunD T71D (protein, UniProt P17535 1-347)
chain: B4 chain with T71D
binding [1]: no binding

The remaining lines, values ahead:

binding [1]: no binding
Molecule: Myc-tagged c-Fos (from UniProt P01100 1-380)

binding [2]: binds
binding [3]: binds
binding [4]: binds
binding [1]: binds
Molecule: Myc-tagged c-Jun (from UniProt P05412 1-331)

binding [2]: binds
B3: Myc-tagged ΔNp63α (protein, UniProt Q9H3D4-2 1-586)
chain: MLYLENNAQTQFSEPQYTNLGLLNSMDQQIQNGSSSTSPYNTDHAQNSVTAPSPYAQPSSTFDALSPSPAIPSNTDYPGPHSFDVSFQQSSTAKSATWTYSTELKKLYCQIAKTCPIQIKVMTPPPQGAVIRAMPVYKKAEHVTEVVKRCPNHELSREFNEGQIAPPSHLIRVEGNSHAQYVEDPITGRQSVLVPYEPPQVGTEFTTVLYNFMCNSSCVGGMNRRPILIIVTLETRDGQVLGRRCFEARICACPGRDRKADEDSIRKQQVSDSTKNGDGTKRPFRQNTHGIQMTSIKKRRSPDDELLYLPVRGRETYEMLLKIKESLELMQYLPQHTIETYRQQQQQQHQHLLQKQTSIQSPSSYGNSSPPLNKMNSMNKLPSVSQLINPQQRNALTPTTIPDGMGANIPMMGTHMPMAGDMNGLSPTQALPPPLSMPSTSHCTPPPPYPTDCSIVSFLARLGCSSCLDYFTTQGLTTIYQIEHYSMDDLASLKIPEQFRHAIWKGILDHRQLHEFSSPSHLLRTPSSASTVSVGSSETRGERVIDAVRFTLRQTISFPPRDEWNDFNFDMDARRNKQQRIKEEGE

binding [1]: binds
B6: Myc-tagged JunD T71V (protein, UniProt P17535 1-347)
chain: B4 chain with T71V

binding [1]: no binding
B7: Myc-tagged JunD mutPxxP (protein, UniProt P17535 1-347)
chain: B4 chain with P69A, P72A, R74A

binding [1]: no binding
B9: Myc-tagged JunD ΔPxxP (protein, UniProt P17535)
chain: METPFYGDEALSGLGGGASGSGGSFASPGRLFPGAPPTAAAGSMMKKDALTLSLSEQVAAALKPAAAPADGAPSAAPPDGLLASPDLGLLKLASPELERLIIQSNGLVTTTPTSSQFLYPKVAASEEQEFAEGFVKALEDLHKQNQLGAGAAAAAAAAAAGGPSGTATGSAPPGELAPAAAAPEAPVYANLSSYAGGAGGAGGAATVAFAAEPVPFPPPPPPGALGPPRLAALKDEPQTVPDVPSFGESPPLSPIDMDTQERIKAERKRLRNRIAASKCRKRKLERISRLEEKVKTLKSQNTELASTASLLREQVAQLKQKVLSHVNSGCQLLPQHQVPAY
